# According to article PMC4336329 (PLoS ONE, 2015):
# About 14,000 (4.5%) of roughly 310,000 compounds showed an effect of 50% or more. Effects have a minus sign here. The list shows a part of the results.
# Target: human ether-à-go-go-related gene (hERG) potassium channel (human, UniProt Q12809)
# Experiment: primary screen, population patch clamp on CHO cells stably expressing hERG
# 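Further: peak tail current of the secondary pulse compared with the same well before compound.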
# human ether-à-go-go-related gene (hERG) potassium channel, sequence (Q12809 whole entry, looked up): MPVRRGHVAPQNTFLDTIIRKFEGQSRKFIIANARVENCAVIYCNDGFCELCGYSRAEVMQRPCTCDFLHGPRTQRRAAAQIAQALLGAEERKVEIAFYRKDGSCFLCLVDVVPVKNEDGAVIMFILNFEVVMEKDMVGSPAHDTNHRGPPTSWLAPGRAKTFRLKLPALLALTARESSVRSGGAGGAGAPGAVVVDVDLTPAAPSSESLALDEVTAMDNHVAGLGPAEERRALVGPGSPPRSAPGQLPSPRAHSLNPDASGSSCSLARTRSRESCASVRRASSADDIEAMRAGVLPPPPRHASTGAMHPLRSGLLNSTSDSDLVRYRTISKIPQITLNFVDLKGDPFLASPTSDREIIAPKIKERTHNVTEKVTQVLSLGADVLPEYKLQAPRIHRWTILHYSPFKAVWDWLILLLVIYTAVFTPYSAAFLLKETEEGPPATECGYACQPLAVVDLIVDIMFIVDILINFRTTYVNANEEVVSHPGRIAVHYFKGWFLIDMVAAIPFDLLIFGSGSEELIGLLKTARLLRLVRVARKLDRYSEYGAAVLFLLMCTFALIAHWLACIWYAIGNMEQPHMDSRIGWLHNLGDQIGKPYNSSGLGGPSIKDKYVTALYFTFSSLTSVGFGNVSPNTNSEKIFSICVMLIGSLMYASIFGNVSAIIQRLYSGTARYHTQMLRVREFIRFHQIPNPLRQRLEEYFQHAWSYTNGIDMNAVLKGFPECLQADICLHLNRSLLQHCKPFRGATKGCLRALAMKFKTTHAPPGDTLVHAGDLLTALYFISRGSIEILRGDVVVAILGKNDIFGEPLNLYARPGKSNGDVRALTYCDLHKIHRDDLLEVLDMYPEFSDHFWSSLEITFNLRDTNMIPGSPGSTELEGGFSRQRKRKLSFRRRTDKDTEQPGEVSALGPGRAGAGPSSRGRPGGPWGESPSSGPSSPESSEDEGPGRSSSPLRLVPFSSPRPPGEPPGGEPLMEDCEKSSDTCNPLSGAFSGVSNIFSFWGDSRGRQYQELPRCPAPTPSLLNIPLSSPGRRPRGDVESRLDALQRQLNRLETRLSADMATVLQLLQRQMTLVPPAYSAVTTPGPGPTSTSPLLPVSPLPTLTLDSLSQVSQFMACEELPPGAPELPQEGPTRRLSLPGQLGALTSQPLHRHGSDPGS
row,Compound,"hERG current change (%, negative = inhibition) at 10uM"
1,O=C(COc1ccc(F)cc1Br)N1CCc2ccccc21,19.9%
2,CCCCSc1cc(=O)[nH]c(N)n1,22%
3,COc1ccc(OCc2cc(C(=O)NC3Cc4ccccc4C3)no2)c(Cl)c1,7.73%
4,Cc1nc2c3cc(F)ccc3n(Cc3ccccc3F)c2s1,-5.77%
5,O=C(Nc1cccn(Cc2c(Cl)cccc2Cl)c1=O)c1ccc(Cl)cc1Cl,4.9%
6,CCOC(=O)Cc1csc(NC(=O)/C=C/c2ccc(Cl)cc2)n1,-9.29%
7,CCN(CC(=O)Nc1ccc(NC(C)=O)cc1)C(=O)CSCC(=O)Nc1ccc(C)cc1,2.95%
8,CC(C)Cc1nnc(NC(=O)CCC(=O)N2CCN(CCOC(c3ccccc3)c3ccccc3)CC2)s1,-32.4%
9,CC(C)c1ccc(S(=O)(=O)NC2CCS(=O)(=O)C2)cc1 (centres unmarked),6.1%
10,CCc1ccc(C(=O)COC(=O)CNC(=O)Cc2ccccc2)cc1,0.382%
11,CCSc1nc2sccc2c(=O)n1-c1ccccc1,6.35%
12,CCNc1ccccc(C(=O)/C=C/c2ccc3c(c2)OCO3)c1=O,-17.7%
13,COc1ccc(CCC(=O)c2ccc(OC)cc2)cc1,-1.41%
14,CCC(=O)N1CCN(c2ccc(NC(=O)COc3ccc(C)cc3C)cc2)CC1,-0.478%
15,CCCN1C(=O)/C(=C/c2ccncc2)SC1=S,0.555%
16,CC1(OC(=O)c2cccs2)C(=O)C=C2C=C(c3ccsc3)OC=C2C1=O (centres unmarked),-0.0759%
17,COc1ccc(S(=O)(=O)N2CCC(C(=O)Nc3c(F)cccc3F)CC2)cc1,19%
18,COc1cc(OC)cc(C(=O)N2CCN(Cc3ccccc3Br)CC2)c1,2.14%
19,CC(C)Oc1ccc(N2CC(C(=O)Nc3ccccc3C(=O)NC3CC3)CC2=O)cc1 (centres unmarked),-66.2%
20,CCn1c(COc2ccccc2)nnc1SCC(=O)CC(=O)Nc1ccccc1OC,-29.1%
21,O=C(O)c1ccc(/C=N/n2cc(-c3ccccc3)[nH]c2=S)cc1,10.3%
22,O=C1Nc2ccc([N+](=O)[O-])cc2C1(O)N1CCCCC1 (centres unmarked),-9.53%
23,COc1ccccc1OCCOCCOc1ccccc1Cl,-5.82%

row,Compound,"hERG current change (%, negative = inhibition) at 10uM"
1,COc1cccc(O)c1CN1CCC(Oc2ccc(C(=O)NCc3ccccn3)cc2)CC1,-11.3%
2,O=C(N/N=C/C=C\c1ccco1)c1cccnc1,8.4%
3,Cc1ccc2oc(=O)c3cc(C(=O)NCCCN4CC(C)CC(C)C4)sc3c2c1 (centres unmarked),-49.2%
4,Cn1c(SCC(=O)NC(=O)NCc2ccco2)nnc1C(F)(F)F,3.13%
5,Oc1ccc(N2CCN(Cc3nc4ccccc4[nH]3)CC2)cc1,-2.93%
6,CCc1c(O)nc(SCC(=O)Nc2ccc(OC)cc2)n(C2CCCCC2)c1=O,-7.61%
7,COc1cccc(OCc2cc(C(=O)N(C)C3CCOCC3)no2)c1,5.52%
8,O=C(CCCCC(=O)NCCCc1ccccc1)NCCCc1ccccc1,14.1%
9,COc1ccccc1-c1ocnc1C(=O)N1CCN(C(=O)C(c2ccccc2)c2ccccc2)CC1,-44.9%
10,O=C(CNC(=O)C1CCCCC1)OCc1cc(=O)oc2ccc3ccccc3c12,-4.88%
11,C/C(=N/NC(=O)c1cc(C)[nH]n1)c1ccco1,11.5%
12,COc1ccc(NC(=O)c2cccc(OC(=S)N3CCOCC3)c2)cc1,-11.2%
13,CCCCOc1cccc(C(=O)N(Cc2ccccc2)C2CCS(=O)(=O)C2)c1 (centres unmarked),-14.2%
14,Cc1sc2nc(SCC(=O)NCCO)n(-c3ccccc3)c(=O)c2c1C,-4.79%
15,Cc1ccc(OCCn2cc(C=O)c3ccccc32)cc1,10.5%
16,COc1ccc(S(=O)(=O)Nc2ccc3c(c2)n(C)c(=O)n3C)cc1C,2.39%
17,O=C(CN(Cc1cccs1)C(=O)CNS(=O)(=O)c1ccc(F)cc1)NCC1CCCO1 (centres unmarked),11.8%
18,Cc1cc2n(n1)C(c1ccco1)Nc1ccccc1-2 (centres unmarked),-4.14%
19,NC(=O)CC(NC(=O)Cc1cccc2ccccc12)c1ccc(NCCOc2ccccc2)c([N+](=O)[O-])c1 (centres unmarked),10.4%
20,CC1CCCCN1C(=O)CN1C(=O)CSc2ccc(S(=O)(=O)N3CCOCC3)cc21 (centres unmarked),5.4%
21,CCC(=O)Nc1ccc(C(=O)OCc2ccc(Cl)c(Cl)c2)cc1,0.0963%
22,CCOc1cccc(-c2c(C(=O)N/N=C/c3cccnc3)nnn2-c2nonc2N)c1,-54%
23,COC(=O)Nc1nnc(Cc2ccc(OC)cc2)s1,10.3%

row,Compound,"hERG current change (%, negative = inhibition) at 10uM"
1,O=C(CNC(=O)c1ccc(Cl)cc1)NCCCn1ccnc1,11.3%
2,CCCNC(=O)CN(CCc1ccccc1)S(C)(=O)=O,8.94%
3,CCCS(=O)(=O)c1snnc1C,14.8%
4,Cc1ccccc1N(CC(=O)N1CCCC1)S(=O)(=O)c1ccc(Cl)cc1,-26.3%
5,CC1=C(C(N)=O)C(c2ccc3c(c2)OCO3)n2nc(-c3cccc(C)c3)nc2N1 (centres unmarked),-7.33%
6,COc1ccc(-c2csc(Nc3ccccn3)n2)cc1OC,3.24%
7,COc1cc(C(=O)OCC(=O)N(C)c2ccccc2)cc(OC)c1OC,-3.14%
8,COCc1nnc(NC(=O)c2ccc(S(=O)(=O)N3CCCC3)cc2)o1,7.08%
9,CN(C)S(=O)(=O)c1ccc(C(=O)NCC(=O)Nc2ccc(F)c(F)c2)cc1,4.94%
10,COc1ccc(Br)cc1CNC(=O)C1CCN(S(=O)(=O)N2CCCCC2)CC1,-15.7%
11,Nc1ccc(S(=O)(=O)Nc2nccc(/C=C/c3ccc(Cl)cc3Cl)n2)cc1,3.71%
12,COc1ccc2[nH]cc(CCNC(=O)Cc3c(F)cccc3Cl)c2c1,4.63%
13,Cc1cc(C)c2c(=O)c(/C=C3\NC(=S)NC3=O)coc2c1,26.6%
14,CCOC(=O)/C=C1\SCC(=O)N1CC(=O)NCCc1ccc(F)cc1,-18.7%
15,CCOC(=O)c1ccc(Oc2nc(OC)nc(N(C)C)n2)cc1,6.27%
16,O=c1c(-c2ccc(Oc3ccccc3)cc2)[n+]([O-])c2ccccc2n1OCc1ccccn1,-14.7%
17,Cc1ccc(S(=O)(=O)CCNC(=O)Cc2ccc(Cl)cc2)cc1,-8.99%
18,CCOC(=O)c1ccc(-n2ccnc2)c(NC(=O)c2cccc(Br)c2)c1,-42.1%
19,CCC(=O)N1CCN(c2ccc(NC(=O)c3ccc(Br)o3)cc2)CC1,-26.9%
20,COc1ccc(C(=O)Nn2cnnc2)cc1,2.42%
21,COc1cc(/C=N/NC(=O)c2cc(O)cc(O)c2)ccc1OC(=O)c1ccccc1,25.2%
22,COc1ccc(OC)c(C(=O)c2ccccc2)c1,2.49%
23,S=C(NCCCN1CCOCC1)N1CCOCC1,10.7%

row,Compound,"hERG current change (%, negative = inhibition) at 10uM"
1,CN(C(=O)Nc1cccc(C(F)(F)F)c1)C1CCCCC1,14.7%
2,COC(=O)c1ccc(NC(=O)c2sc3nc(-c4ccccc4)cn3c2C)cc1,8.42%
3,Cc1ccc(Sc2ncccc2C(N)=O)cc1,2.36%
4,COc1ccc(CN2CCN(C(=O)c3cc(-c4cccnc4)nc4ccc(Cl)cc34)CC2)c(OC)c1OC.Cl,-33.5%
5,CCOC(=O)C1CCCN(S(=O)(=O)c2cc(OCC(N)=O)c(C)cc2Cl)C1 (centres unmarked),6.83%
6,COc1ccc2c(=O)cc(C(=O)O)oc2c1,8.91%
7,COc1ccc(NC(=O)[C@@H](NC(N)=O)C(C)C)cc1Cl,21.1%
8,O=C(CCc1nc(-c2cccs2)no1)Nc1cnc2ccccc2c1,40.4%
9,O=C(NCC1CCCO1)C1CCN(C2CCN(C(=O)Cc3ccsc3)CC2)CC1 (centres unmarked),6.82%
10,Cc1ccc(C)c(OCCC(=O)NCCc2ccc(F)cc2)c1,-27.2%
11,COc1ccc2oc(C(=O)N3CCN(S(=O)(=O)c4cccc([N+](=O)[O-])c4)CC3)c(C)c2c1,4.4%
12,COc1ccc(C2=C/C(=C\c3ccccc3OC(C)=O)C(=O)O2)cc1,17.6%
13,Cc1c(C(=O)N2CC(C)OC(C)C2)sc2nc(-c3ccc(F)cc3)cn12 (centres unmarked),-38.4%
14,O=C(Nc1nc(-c2cc3ccccc3o2)cs1)c1ccc(S(=O)(=O)N2CCCC2)cc1,18.3%
15,O=C(c1cc(COc2ccc(F)c(F)c2)on1)N1CCOCC1,5.02%
16,CCOc1ccc(CC(=O)NNC(=S)NC)cc1,10.9%
17,CC(NC(=O)CCNS(=O)(=O)c1ccc2c(c1)oc(=O)n2C)c1ccccc1 (centres unmarked),11.1%
18,Cc1c(NC(=O)/C(C#N)=C/c2c(Oc3ccccc3)nc3ccccn3c2=O)c(=O)n(-c2ccccc2)n1C,5.93%
19,COc1ccc(-c2nnc(N3CCOCC3)c3ccccc23)cc1,-2.78%
20,O=C(NCC(=O)N1CCC(N2CCCCC2)CC1)C1CCCCC1,4.84%
